Tested on: male wistar rats
Test: Toxicity test, oral administration for four days
Conditions: 100 mg/kg/day orally for four days

## Cc1cn2c3ccc(Br)cc3c3cc(OCC(=O)OC(C)(C)C)cc(c1=O)c32 [Example 15, 10-bromo-2-t-butoxycarbonylmethyloxy-5-methyl-4H-pyrido[3,2,1-jk]carbazol-4-one]
  abnormal change in body weight and general symptoms: no abnormal change
Until the next morning of the completion of the administration
  dead case: no dead case

— patent EP0992240A1, “THERAPEUTIC AGENT FOR ERECTION FAILURE” (MOCHIDA PHARMACEUTICAL CO., LTD., priority 1997, dated 1998)
